No constants are given. Whether binding was seen depends on the method and setting. For some of these results: In cells and extracts the contact can be indirect. Some entries that bind do so weakly or less than the wild type. For some of these results: Sequences can lack the tags named with a protein.

Amino acid sequences for entries named in this document (tags omitted).
UniProt P28340: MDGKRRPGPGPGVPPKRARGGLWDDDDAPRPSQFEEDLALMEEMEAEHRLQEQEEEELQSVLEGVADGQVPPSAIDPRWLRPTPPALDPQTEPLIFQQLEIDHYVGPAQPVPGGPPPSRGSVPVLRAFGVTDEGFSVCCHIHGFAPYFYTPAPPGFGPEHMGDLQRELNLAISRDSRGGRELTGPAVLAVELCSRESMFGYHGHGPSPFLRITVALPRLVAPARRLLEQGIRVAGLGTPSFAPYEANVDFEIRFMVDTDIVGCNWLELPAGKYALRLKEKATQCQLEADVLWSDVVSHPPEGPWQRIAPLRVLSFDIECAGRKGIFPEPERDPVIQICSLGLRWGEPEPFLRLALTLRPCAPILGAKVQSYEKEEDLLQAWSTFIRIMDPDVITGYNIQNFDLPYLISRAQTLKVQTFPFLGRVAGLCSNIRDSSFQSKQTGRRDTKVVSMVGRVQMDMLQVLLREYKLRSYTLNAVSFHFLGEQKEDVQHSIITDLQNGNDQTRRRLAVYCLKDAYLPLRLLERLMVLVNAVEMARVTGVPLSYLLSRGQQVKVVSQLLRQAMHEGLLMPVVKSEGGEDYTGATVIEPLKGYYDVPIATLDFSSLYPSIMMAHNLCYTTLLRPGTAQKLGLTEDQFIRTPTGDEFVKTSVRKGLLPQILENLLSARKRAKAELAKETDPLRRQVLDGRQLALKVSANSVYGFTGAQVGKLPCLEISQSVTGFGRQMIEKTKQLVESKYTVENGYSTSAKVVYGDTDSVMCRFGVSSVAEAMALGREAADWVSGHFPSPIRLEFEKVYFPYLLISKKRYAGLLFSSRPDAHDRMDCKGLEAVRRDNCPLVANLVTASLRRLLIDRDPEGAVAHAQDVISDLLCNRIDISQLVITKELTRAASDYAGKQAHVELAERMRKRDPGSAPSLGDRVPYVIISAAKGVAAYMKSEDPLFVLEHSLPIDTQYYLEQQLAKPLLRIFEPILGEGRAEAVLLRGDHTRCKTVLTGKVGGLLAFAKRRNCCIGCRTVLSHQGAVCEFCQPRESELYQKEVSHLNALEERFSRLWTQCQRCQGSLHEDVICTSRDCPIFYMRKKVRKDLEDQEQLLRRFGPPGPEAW
UniProt P49005: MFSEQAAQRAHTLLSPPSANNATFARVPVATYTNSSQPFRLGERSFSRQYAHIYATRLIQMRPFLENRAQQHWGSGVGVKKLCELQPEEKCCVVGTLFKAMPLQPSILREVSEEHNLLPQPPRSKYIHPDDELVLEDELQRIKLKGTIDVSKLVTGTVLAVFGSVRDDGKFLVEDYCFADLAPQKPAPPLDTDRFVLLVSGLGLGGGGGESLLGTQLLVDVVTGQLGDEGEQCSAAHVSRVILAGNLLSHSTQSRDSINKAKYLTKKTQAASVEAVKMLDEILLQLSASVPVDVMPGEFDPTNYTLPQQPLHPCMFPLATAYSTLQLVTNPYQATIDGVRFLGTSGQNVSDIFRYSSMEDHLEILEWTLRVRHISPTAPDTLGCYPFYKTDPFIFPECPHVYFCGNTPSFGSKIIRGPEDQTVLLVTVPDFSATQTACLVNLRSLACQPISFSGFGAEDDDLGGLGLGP

Drawing on paper PMC6424025, “Human DNA polymerase delta is a pentameric holoenzyme with a dimeric p12 subunit” (Life Science Alliance, 2019), this text covers binding for 15 molecules.

In assay [1] the target is native p125 of HEK293 cells (human (endogenous in HEK293)) (UniProt P28340). As to the kind of experiment: co-IP; HEK293 cells transfected with GFP-p12; anti-p125 antibody-conjugated agarose beads, RIPA buffer; subunits detected by subunit-specific antibodies, GFP-p12 by anti-GFP.
Assay [2] has as its target T1, p12, wild type, expressed in HEK293 cells (GFP-p12 and FLAG-p12) (human) (UniProt Q9HCU8).
T1 sequence: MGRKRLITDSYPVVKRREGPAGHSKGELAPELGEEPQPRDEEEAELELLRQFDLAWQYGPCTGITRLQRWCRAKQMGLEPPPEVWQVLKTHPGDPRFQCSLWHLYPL
The assay is described as follows: co-IP; HEK293 cells transfected with GFP-p12; anti-GFP antibody-conjugated agarose beads, RIPA buffer; native subunits detected by subunit-specific antibodies.

The target of assay [3] is GST-p125, co-expressed in E. coli (human) (UniProt P28340). As to the kind of experiment: pull-down; GST-affinity purification of hPolδ from E. coli BLR (DE3) co-expressing GST-p125 and pCOLA-hPold234 (p50, p68, His-FLAG-p12) on glutathione-sepharose; bands authenticated by Western blot.
In assay [4] the target is T2, p12 R3A, K4A, R5A, yeast two-hybrid fusion (AD and BD) (human) (UniProt Q9HCU8).
T2 sequence: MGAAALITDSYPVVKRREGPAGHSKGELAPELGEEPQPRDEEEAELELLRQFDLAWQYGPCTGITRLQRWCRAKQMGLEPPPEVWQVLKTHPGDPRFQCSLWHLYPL
The assay is described as follows: two-hybrid; HFY7C yeast, GAL4-AD and GAL4-BD fusions, HIS3 reporter, growth on Leu-Trp-His- medium, 2 d at 30°C.

Assay [5] has as its target p50 subunit of human DNA polymerase delta, yeast two-hybrid fusion (BD-p50) (human) (UniProt P49005). The assay is described as above.
The target in assay [6] is p125 subunit of human DNA polymerase delta, yeast two-hybrid fusion (BD-p125) (human) (UniProt P28340). The assay is described as above.
In assay [7] the target is T3, p12 L104A, Y105A, yeast two-hybrid fusion (BD) (human) (UniProt Q9HCU8).
T3 sequence: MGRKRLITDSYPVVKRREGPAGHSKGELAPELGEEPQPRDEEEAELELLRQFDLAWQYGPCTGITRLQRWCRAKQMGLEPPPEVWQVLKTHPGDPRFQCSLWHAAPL
The description is as above.

Assay [8] concerns the target p12, wild type, yeast two-hybrid fusion (AD-p12 and BD-p12) (human) (UniProt Q9HCU8). The assay is described as above.
For assay [9], the target named is T1, p12, wild type, expressed in HEK293 cells (GFP-p12 and FLAG-p12) (human). The assay is described as follows: co-IP; HEK293 cells co-transfected with FLAG-p12 and GFP-p12 or GFP-p12 R3A, K4A, R5A; anti-FLAG agarose beads, RIPA buffer, blot with anti-GFP.
Assay [10] addresses T4, p68 subunit of human DNA polymerase delta, yeast two-hybrid fusion (BD-p68) (human), Q15054.
T4 chain: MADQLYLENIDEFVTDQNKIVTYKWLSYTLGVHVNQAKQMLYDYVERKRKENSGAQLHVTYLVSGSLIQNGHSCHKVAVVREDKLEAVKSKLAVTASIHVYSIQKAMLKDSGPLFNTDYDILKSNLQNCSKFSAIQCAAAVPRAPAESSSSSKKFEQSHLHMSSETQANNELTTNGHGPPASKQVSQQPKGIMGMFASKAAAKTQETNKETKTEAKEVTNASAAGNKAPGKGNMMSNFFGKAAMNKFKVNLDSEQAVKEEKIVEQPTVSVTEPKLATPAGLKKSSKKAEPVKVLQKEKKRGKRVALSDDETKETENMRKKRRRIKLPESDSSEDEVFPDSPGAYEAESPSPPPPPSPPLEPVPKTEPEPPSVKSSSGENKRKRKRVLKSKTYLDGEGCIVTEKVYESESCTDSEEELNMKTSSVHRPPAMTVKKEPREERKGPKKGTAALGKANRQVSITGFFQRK
As to the kind of experiment: two-hybrid; HFY7C yeast, GAL4-AD and GAL4-BD fusions, HIS3 reporter, growth on Leu-Trp-His- medium, 2 d at 30°C. Particulars: remark: other sources report otherwise.

Assay [11] concerns the target T5, p12 R3A, K4A, R5A mutant, purified, GST tag cleaved off (human) (UniProt Q9HCU8).
T5 sequence: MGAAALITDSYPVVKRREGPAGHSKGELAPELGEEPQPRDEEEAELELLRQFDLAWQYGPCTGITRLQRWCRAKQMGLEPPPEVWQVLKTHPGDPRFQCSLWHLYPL
The assay is described as follows: ITC; p12 (10 μM) in the cell, p12 (120 μM) in the syringe, 30°C, 20 mM Hepes pH 7.4, 150 mM NaCl, single-site model; dimer to monomers; both purified.

The target of assay [12] is T5, p12 R3A, K4A, R5A mutant, purified, GST tag cleaved off (human). The assay is described as follows: native gel or EMSA; 12% native PAGE, 80 V for 5 h at 4°C, 25 mM Tris base, 192 mM glycine, pH 8.8, Coomassie staining; migration compared with carbonic anhydrase or with the mutant; both purified.
Assay [13] shares this target. The assay is described as follows: cross-linking; 1-5 μg of protein in 20 mM Hepes pH 7.5, 0.5% formaldehyde, 30 min at 25°C, 12% SDS-PAGE, Coomassie; both purified.
Assay [14] shares this target. The assay is described as follows: SEC; about 10 μg of protein on Superdex 200 PC3.2/30, 50 mM Hepes pH 7.5, 150 mM NaCl, 10% glycerol, 4°C; both purified.
Assay [15] has as its target Cdm1 K2A, K3A, R4A mutant, purified (S. pombe) (UniProt O59835). As to the kind of experiment: native gel or EMSA; 12% native PAGE, 80 V for 5 h at 4°C, 25 mM Tris base, 192 mM glycine, pH 8.8, Coomassie staining; migration compared with carbonic anhydrase or with the mutant; both purified.

As for “native p50 of HEK293 cells (from UniProt P49005 1-469)”, the binding result in assay [1] and in assay [2] was “binds” throughout.

With “p50, co-expressed in E. coli from pCOLA-hPold234 (from UniProt P49005 1-469)”, the binding entry in assay [3] was “binds”. For the molecule “native p125 of HEK293 cells (from UniProt P28340 1-1107)”, the binding entry in assay [2] is reported as “binds”.

B1: native p68 of HEK293 cells (protein, UniProt Q15054 1-466)
chain: MADQLYLENIDEFVTDQNKIVTYKWLSYTLGVHVNQAKQMLYDYVERKRKENSGAQLHVTYLVSGSLIQNGHSCHKVAVVREDKLEAVKSKLAVTASIHVYSIQKAMLKDSGPLFNTDYDILKSNLQNCSKFSAIQCAAAVPRAPAESSSSSKKFEQSHLHMSSETQANNELTTNGHGPPASKQVSQQPKGIMGMFASKAAAKTQETNKETKTEAKEVTNASAAGNKAPGKGNMMSNFFGKAAMNKFKVNLDSEQAVKEEKIVEQPTVSVTEPKLATPAGLKKSSKKAEPVKVLQKEKKRGKRVALSDDETKETENMRKKRRRIKLPESDSSEDEVFPDSPGAYEAESPSPPPPPSPPLEPVPKTEPEPPSVKSSSGENKRKRKRVLKSKTYLDGEGCIVTEKVYESESCTDSEEELNMKTSSVHRPPAMTVKKEPREERKGPKKGTAALGKANRQVSITGFFQRK
On to B1, for which, in [1], the binding entry was “binds”.

B2: p68, co-expressed in E. coli from pCOLA-hPold234 (protein, UniProt Q15054 1-466)
chain: MADQLYLENIDEFVTDQNKIVTYKWLSYTLGVHVNQAKQMLYDYVERKRKENSGAQLHVTYLVSGSLIQNGHSCHKVAVVREDKLEAVKSKLAVTASIHVYSIQKAMLKDSGPLFNTDYDILKSNLQNCSKFSAIQCAAAVPRAPAESSSSSKKFEQSHLHMSSETQANNELTTNGHGPPASKQVSQQPKGIMGMFASKAAAKTQETNKETKTEAKEVTNASAAGNKAPGKGNMMSNFFGKAAMNKFKVNLDSEQAVKEEKIVEQPTVSVTEPKLATPAGLKKSSKKAEPVKVLQKEKKRGKRVALSDDETKETENMRKKRRRIKLPESDSSEDEVFPDSPGAYEAESPSPPPPPSPPLEPVPKTEPEPPSVKSSSGENKRKRKRVLKSKTYLDGEGCIVTEKVYESESCTDSEEELNMKTSSVHRPPAMTVKKEPREERKGPKKGTAALGKANRQVSITGFFQRK
Turning to B2, in assay [3], the binding entry is “binds”.

B3: p12, wild type, yeast two-hybrid fusion (AD-p12 and BD-p12) (protein, UniProt Q9HCU8 1-107)
chain: MGRKRLITDSYPVVKRREGPAGHSKGELAPELGEEPQPRDEEEAELELLRQFDLAWQYGPCTGITRLQRWCRAKQMGLEPPPEVWQVLKTHPGDPRFQCSLWHLYPL
Take B3: the binding entry in assay [4] is given as “no binding”; in [5], “binds”; in [6], “binds”; in assay [7] it was “binds”; in [8], “binds”.

B4: GFP-p12 R3A, K4A, R5A, expressed in HEK293 cells (protein, UniProt Q9HCU8 1-107)
chain: MGAAALITDSYPVVKRREGPAGHSKGELAPELGEEPQPRDEEEAELELLRQFDLAWQYGPCTGITRLQRWCRAKQMGLEPPPEVWQVLKTHPGDPRFQCSLWHLYPL
Take B4: the binding entry in assay [9] was “no binding”.

B5: p12, wild type, yeast two-hybrid fusion (AD-p12 and BD-p12), Q9HCU8 1-107 (protein)
chain: MGRKRLITDSYPVVKRREGPAGHSKGELAPELGEEPQPRDEEEAELELLRQFDLAWQYGPCTGITRLQRWCRAKQMGLEPPPEVWQVLKTHPGDPRFQCSLWHLYPL
Consider B5, for which, in assay [10], the binding entry is listed as “no binding”.

B6: p12 R3A, K4A, R5A, yeast two-hybrid fusion (AD and BD) (protein, UniProt Q9HCU8 1-107)
chain: MGAAALITDSYPVVKRREGPAGHSKGELAPELGEEPQPRDEEEAELELLRQFDLAWQYGPCTGITRLQRWCRAKQMGLEPPPEVWQVLKTHPGDPRFQCSLWHLYPL
Regarding B6, the binding entry in assay [5] and in [6] was “binds” each time.

B7: native p12 of HEK293 cells (protein, UniProt Q9HCU8 1-107)
chain: MGRKRLITDSYPVVKRREGPAGHSKGELAPELGEEPQPRDEEEAELELLRQFDLAWQYGPCTGITRLQRWCRAKQMGLEPPPEVWQVLKTHPGDPRFQCSLWHLYPL
For B7, the binding entry in assay [1] and in [2] was “binds” each time.

B8: FLAG-p12, co-expressed in E. coli from pCOLA-hPold234 (His-FLAG-p12) (protein, UniProt Q9HCU8 1-107)
chain: MGRKRLITDSYPVVKRREGPAGHSKGELAPELGEEPQPRDEEEAELELLRQFDLAWQYGPCTGITRLQRWCRAKQMGLEPPPEVWQVLKTHPGDPRFQCSLWHLYPL
Take B8: the binding entry in assay [3] is on record as “binds”.

B9: p12 subunit of human DNA polymerase delta, wild type, purified, GST tag cleaved off (natural protein, UniProt Q9HCU8 1-107, looked up)
chain: MGRKRLITDSYPVVKRREGPAGHSKGELAPELGEEPQPRDEEEAELELLRQFDLAWQYGPCTGITRLQRWCRAKQMGLEPPPEVWQVLKTHPGDPRFQCSLWHLYPL
notes: DNA polymerase delta subunit 4 (p12), human; PCR product from pCOLA-hPold234; also called untagged p12; wild-type p12; source: E. coli BL21 DE3, purified (glutathione-sepharose; GST cleaved by PreScission protease); not shown: GST, N-terminal, cleaved
As to B9, the binding entry in assay [11] is reported as “no binding (tested: 10 μM in the cell, 120 μM in the syringe)”.

B10: p12, wild type, expressed in HEK293 cells (GFP-p12 and FLAG-p12) (protein, UniProt Q9HCU8 1-107)
chain: MGRKRLITDSYPVVKRREGPAGHSKGELAPELGEEPQPRDEEEAELELLRQFDLAWQYGPCTGITRLQRWCRAKQMGLEPPPEVWQVLKTHPGDPRFQCSLWHLYPL
Regarding B10, the binding entry in assay [1] and in [9] was “binds” throughout.

B11: p12 R3A, K4A, R5A mutant, purified, GST tag cleaved off (protein, UniProt Q9HCU8 1-107)
chain: MGAAALITDSYPVVKRREGPAGHSKGELAPELGEEPQPRDEEEAELELLRQFDLAWQYGPCTGITRLQRWCRAKQMGLEPPPEVWQVLKTHPGDPRFQCSLWHLYPL
On to B11, for which the binding entry is given as “no binding” in [12], “no binding (tested: 1-5 μg of protein)” in assay [13] and “no binding (tested: about 10 μg loaded)” in assay [14].

B12: Cdm1 K2A, K3A, R4A mutant, purified (protein, UniProt O59835 1-160)
chain: MAAATTQAKKSGQNTNIRDVFPHVVRSNSSQSHIGKKVSSEQSPTPDVTITTKTLDERIKEDDELSKEVEEAWNQIMAERISEPIHCENITKVEFILHHFDTTARYGPYLGMTRMQRWKRAKNFNLNPPETVGKILMLEEADEENRKRESLFYDLQTIPG
With B12, in assay [15], the binding entry is “no binding”.
